Results as given in the supplement of paper PMC3334620.
The full ranking holds about 33,000 sequences; the median of “E-score (-0.5 to 0.5)” is about -0.043, and the highest 2% start at about 0.37. Some of the results follow.

Biological target: T1, Upc2 (UniProt Q12151)
T1 sequence: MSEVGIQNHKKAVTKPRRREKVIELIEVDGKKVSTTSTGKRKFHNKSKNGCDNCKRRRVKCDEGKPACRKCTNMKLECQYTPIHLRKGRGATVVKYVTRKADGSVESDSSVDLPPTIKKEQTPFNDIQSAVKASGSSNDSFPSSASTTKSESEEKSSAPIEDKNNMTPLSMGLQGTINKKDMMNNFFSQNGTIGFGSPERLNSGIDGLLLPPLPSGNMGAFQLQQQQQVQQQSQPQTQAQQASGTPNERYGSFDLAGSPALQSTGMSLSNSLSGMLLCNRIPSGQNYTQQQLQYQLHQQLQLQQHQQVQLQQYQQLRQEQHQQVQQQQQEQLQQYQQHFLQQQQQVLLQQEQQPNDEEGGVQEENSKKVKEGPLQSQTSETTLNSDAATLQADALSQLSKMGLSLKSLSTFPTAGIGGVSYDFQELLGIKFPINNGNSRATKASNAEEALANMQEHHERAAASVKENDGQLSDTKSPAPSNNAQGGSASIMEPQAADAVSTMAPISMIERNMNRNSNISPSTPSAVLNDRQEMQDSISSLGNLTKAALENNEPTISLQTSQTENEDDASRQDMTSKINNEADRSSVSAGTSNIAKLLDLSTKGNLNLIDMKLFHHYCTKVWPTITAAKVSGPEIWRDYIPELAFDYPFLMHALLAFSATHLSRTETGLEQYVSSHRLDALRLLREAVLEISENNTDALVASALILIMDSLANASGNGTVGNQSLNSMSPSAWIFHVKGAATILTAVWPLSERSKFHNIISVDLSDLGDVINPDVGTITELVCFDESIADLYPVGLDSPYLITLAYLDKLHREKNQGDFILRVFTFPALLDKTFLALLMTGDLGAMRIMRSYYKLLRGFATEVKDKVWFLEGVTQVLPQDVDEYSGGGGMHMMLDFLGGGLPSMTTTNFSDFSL
Test: PBM E-score (8-mer binding enrichment) (E-score (-0.5 to 0.5)); higher = stronger / more preferred TF binding; most listed sequences are background and not binding sites
Conditions: protein concentration: 200 nM; construct: GST-full length
Method in brief: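 GST-tagged yeast TFs (full-length or DNA-binding domain) were made by PURExpress in vitro transcription/translation and applied at about 100-200 nM to universal all-10-mer Agilent arrays. The arrays were made double-stranded by primer extension, on fresh or once-stripped slides. Bound protein was detected with fluorescent anti-GST, and scans were normalised with masliner. Each ungapped eight-base word, pooled with its reverse complement, received an E-score (modified Wilcoxon-Mann-Whitney statistic) from the Universal PBM Analysis Suite.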

Row | Sequence | PBM E-score
1 | ATGCCCTG | -0.291
2 | AGACTTTC | -0.181
3 | CTATCTCA | -0.137
4 | AAACCCCC | -0.197
5 | ACATAATC | 0.155
6 | GTGTACTA | 0.127
7 | GTCGGAAA | 0.191
8 | GCGCCGCC | 0.109
9 | ATTCTACG | 0.268
10 | GTAAGGTA | 0.128
11 | ACAGCGCC | -0.0962
12 | AAGACCTA | -0.153
13 | ACAGGTCA | 0.0278
14 | CTCGGGTA | 0.217
15 | CGCCCGTC | -0.143
16 | AATACGGG | 0.229
17 | ATTCCCCG | -0.0939
18 | CATTTGAG | 0.0275
19 | CACTGCTG | -0.101
20 | AATTTCAT | 0.00289
21 | CGGGACCA | -0.274
22 | AAAAAGCG | 0.0788
23 | ACCGACAA | 0.057
24 | GGGGCTCA | -0.285
25 | CACTTACA | -0.0593

Row | Sequence | PBM E-score
26 | CCCTATCC | -0.0919
27 | AAAGAAAT | 0.0386
28 | GCTGTCGA | -0.0886
29 | CAACAGTA | -0.0139
30 | AATATTCA | -0.076
31 | AAGTCCCA | -0.0974
32 | CTGAGTGA | -0.0657
33 | AGTAGATC | -0.13
34 | CACAAATC | -0.00356
35 | CATTGGTC | -0.202
36 | AACGAAAG | 0.383
37 | GGGGTGGA | -0.298
38 | AAAGTTCC | -0.185
39 | GTTTTCGA | 0.0699
40 | CACCTCTC | -0.242
41 | CTAAGATA | -0.179
42 | CAGTTCGG | 0.013
43 | ATGTGTCG | 0.139
44 | CGTGAGCC | -0.0588
45 | GAGCCGGC | -0.101
46 | TCATGAAA | 0.0303
47 | AGTTTATG | -0.118
48 | ACCTTGGG | -0.219
49 | AGGTGGCG | -0.158
50 | TGTGTGAA | -0.107

Row | Sequence | PBM E-score
51 | ACTTTCCG | -0.1
52 | AGCAATAC | 0.151
53 | ATCAATTA | 0.126
54 | AATCTTAT | 0.0171
55 | AACATGTA | 0.15
56 | TCTACAAA | -0.0898
57 | AATGTAGT | -0.0884
58 | ACTTGAGA | -0.0234
59 | AGACCCCT | -0.304
60 | ATCAATGA | 0.0601
61 | GGCCCACC | -0.0985
62 | CGGACGAA | 0.148
63 | ACGGGCCC | 0.0647
64 | GGACTTGA | -0.174
65 | ATTCTTGG | -0.111
66 | ATTAAACC | -0.0396
67 | GACCCGCA | -0.017
68 | CCTACTCC | -0.318
69 | GCGCTCCA | -0.195
70 | ACGTACTA | 0.149
71 | CGATTCTC | -0.065
72 | GAGGGGAA | -0.0713
73 | ATCGTCGC | 0.155
74 | CAGCGCGG | -0.191
75 | ATCCTCCG | 0.0685

Row | Sequence | PBM E-score
76 | GACAATAA | -0.0324
77 | CTAGTAAC | -0.18
78 | CGACACTC | 0.141
79 | ACCTCCTC | -0.191
80 | CGCATCGC | 0.148
81 | GAATCTCC | -0.039
82 | CCCTTCTC | -0.165
83 | CTTGTGTA | 0.052
84 | CCGAAAGA | 0.00915
85 | ATTGATGG | -0.0752
86 | CGACGGAG | -0.0414
87 | CACCGGTG | -0.149
88 | CCTACGAA | 0.228
89 | GAAGGTCA | -0.222
90 | CCGTTCAC | 0.291
91 | ACATCTGG | -0.0529
92 | GAAGGAGC | -0.102
93 | CTCCACGA | 0.0312
94 | GAATTGAC | -0.0563
95 | ATGCCTTG | -0.103
96 | CCAGGGCG | -0.0863
97 | AATATAGG | 0.0495
98 | TCGAACAA | 0.152
99 | CGTGGGAC | -0.00808
100 | CTGGCTCA | -0.137

Row | Sequence | PBM E-score
101 | GCGGGTCC | -0.0393
102 | GCTATTCC | -0.226
103 | CGTCCTTA | -0.1
104 | AAAGAGCG | 0.141
105 | AACAAGCC | -0.201
106 | GCCCCACA | 0.0246
107 | AGTTTGTC | -0.139
108 | ATCGCTAC | 0.133
109 | ACGGTATG | 0.0901
110 | AGTTACCG | 0.0774
111 | TGAACCAA | -0.0118
112 | AAATCAAA | -0.0732
113 | ATCTATAG | -0.175
114 | CTGATCCA | -0.238
115 | ACATCAAG | -0.0355
116 | CGCGCTCC | -0.00687
117 | AACTCCGG | 0.08
118 | GAGTGCTA | 0.0709
119 | GCGTATAA | 0.444
120 | GTAGACAA | -0.0587
121 | CATATTCG | 0.158
122 | GGAGAGTA | -0.175
123 | TCTTAGAA | -0.0619
124 | CACTTATA | 0.183
125 | ACTGCAAG | -0.0743

Row | Sequence | PBM E-score
126 | CTGCCAGC | -0.274
127 | CCAGAGTA | -0.164
128 | ACAATACG | 0.358
129 | CGACTTCA | 0.114
130 | ACACACTG | 0.175
131 | ACCATCGC | 0.0261
132 | ACTTTTGA | -0.0729
133 | CACAAGTA | -0.0709
134 | AACCGCTC | -0.0136
135 | AGAGATCG | -0.0121
136 | AGAAGCAA | -0.137
137 | AGGATTGG | -0.117
138 | CCCAACCG | 0.0371
139 | ACGTGTCT | 0.0353
140 | CCGAGGAA | 0.0492
141 | AATCCACT | -0.192
142 | GCCTCGCA | 0.137
143 | CATGTAAG | -0.0125
144 | CTAAGGCC | -0.239
145 | AATTATAC | 0.29
146 | AAAAGAGA | 0.0789
147 | ACGGTAGA | 0.143
148 | AGACAACG | -0.0279
149 | CGGATGAG | -0.134
150 | TCAGCTGA | 0.0315

Row | Sequence | PBM E-score
151 | ACTTTGCG | 0.0188
152 | ATGAGCAG | -0.122
153 | ACCATCCG | 0.0546
154 | ATGCCGGG | -0.159
155 | CCTACACA | -0.118
156 | ACCCATCG | 0.104
157 | GCGTGTTA | -0.0587
158 | CCACTTTA | -0.0541
159 | CCAAATTA | 0.044
160 | AAACCGAA | 0.229
161 | CCCTAACG | 0.222
162 | GTTGCTTA | -0.0668
163 | AACTTTGC | -0.0748
164 | CGAGTTTA | 0.135
165 | AACATCCG | 0.0799
166 | AAAGTGCC | -0.176
167 | CATTGTTC | -0.0687
168 | GCTATTGA | -0.0594
169 | AATAGCCG | -0.199
170 | ACTTCATA | 0.0058
171 | ACAGTGCA | -0.0434
172 | CACGGATA | 0.108
